Here are results for one molecule from EP4474016A1, “STRATEGIES TO TARGET EXTRACELLULARLY ACCESSIBLE RAS PROTEIN” (Julius-Maximilians-Universität Würzburg, priority 2023, dated 2024).

The target of this assay is Ras protein on the extracellular surface of the plasma membrane of human tumour cells (human), P01111. Nature of the assay: cell-based or functional assay.

B1: SFV02_PCC06 anti-Ras bispecific antibody (bispecific antibody)
chain 1: GPGAEVQLVESGGGLVQPGGSLRLSCAASGYSFTGYTMNWVRQAPGKGLEWVALINPYKGVSTYNQKFKDRFTISVDKSKNTAYLQMNSLRAEDTAVYYCARSGYYGDSDWYFDVWGQGTLVTVSSGGGGSGGGGSGGGGSDIQMTQSPSSLSASVGDRVTITCRASQDIRNYLNWYQQKPGKAPKLLIYYTSRLESGVPSRFSGSGSGTDYTLTISSLQPEDFATYYCQQGNTLPWTFGQGTKVEIKGSGGGGGS[letters of human IgG1 Fc with L234A L235A N297A P329A S354C T366W (EU numbers) left out]
chain 2: DKTHTCPPCPAPEAAGGPSVFLFPPKPKDTLMISRTPEVTCVVVDVSHEDPEVKFNWYVDGVEVHNAKTKPREEQYASTYRVVSVLTVLHQDWLNGKEYKCKVSNKALAAPIEKTISKAKGQPREPQVCTLPPSRDELTKNQVSLSCAVKGFYPSDIAVEWESNGQPENNYKTTPPVLDSDGSFFLVSKLTVDKSRWQQGNVFSCSVMHEALHNHYTQKSLSLSPGKGSGGSGSVSSVPTKLEVVAATPTSLLISWDAPAVTVDYYVITYGETGGNSPVQKFEVPGSKSTATISGLKPGVDYTITVYAWGWHGQVYYYMGSPISINYRTGSHHHHHHHH
For B1, the killing of MM.1S cells + T cells, antibody 3.125 nM with 1.5 uM Lenalidomide stood at 65%; the killing of MV4-11 cells + T cells, antibody 3.75 nM with 0.5% DMSO came to 50%; the medium maximal killing rate of MM.1S cells + T cells, antibody 25 nM with 1.5 uM Lenalidomide was found to be 80%; the medium maximal killing rate of MM.1S cells + T cells, antibody only, highest concentration turned out to be 35%. Further, the medium maximal killing rate of MV4-11 cells + T cells, antibody 15 nM with 0.5% DMSO turned out to be 45% and the medium maximum killing rate of MV4-11 cells + T cells, antibody 15 nM only worked out at 25%.
